From the RNAGym collection of RNA variant scans (doi:10.7554/elife.90254)
The source gives no read counts; variants with many changes may rest on few reads.

B1: LINE1-mini (parent)
chain: GGCAGAGCUCAACACAGCGUGGCAAAGUGGCUGUGGCUAGACUGCC

Variants of: B1
Assay: self-cleavage, relative activity (ratio to wild type); higher = more cleavage; in vitro, sequencing; the parent is a self-cleaving ribozyme

Variant	self-cleavage
G2A A14G C18U G40U	0.01
G2A A12G C18U G29C G36U	0.01
G2A C3A C10A A11C U43G	0
G2A C3A G7A	0.6
G2A C13A A25U U28G	0.14
G2A A12G U38A	0
G2A C3A C18G C42U	0.87
G2A C3U A16U A25U U34C	0.36
G2A C13A A25U	0.25
G2A A12C G17C	0.14
G2A C10G G36C C46G	0.04
G2A A24G C46U	0.18
G2A C8A G29A	0.54
G2A C3U C15G U28A	0.04
G2A A16U C23G	0.24
G2A A39C G44A	0.11
G2A A25U G29A A41C	0.31
G2A A14G G21A	0.15
G2A C3G A11U C13A A39C G40U	0.02
G2A C8G C10A A26C C37G	0.02
G2A C18U G19A G22U A24G C45G	0.98
G2A C8A G30A G40U C46G	0.48
G2A C10G A26C	0.07
G2A C8A C15G	0.21

Variant	self-cleavage
G2A C15U A41C C45G	0.06
G2A A4U A14C C23A A39U	1.19
G2A A26U C42A	0.07
G2A C15A G33C C45U	0.03
G2A A16C C18U G19A U28A G36U C37A	0.1
G2A A6G G7C C31U	0.02
G2A A4G G35C C45G	0.38
G2A C8U G27U C31U U34C	0.09
G2A G5A C13G C23U G36A G44U	0.78
G2A C15A C23A A25G G35A G36U U43A	0.07
G2A C8A G17A A25G C45G C46A	0.29
G2A C15U C18U U38G	0.08
G2A A6C C18U	0.23
G2A A14G G35A	0.28
G2A C18U A41U	0.24
G2A A6G G44U	0.08
G2A A25C U34A C45G	0.12
G2A C8U C10A A12C C13U	0.04
G2A A12U G17C	1.14
G2A C10A A16G G22U	0.03
G2A A14G G21U C31U	0.1
G2A A16U A26C	0.02
G2A C23U A25G C42U U43A	0.02
G2A C15A U34G	0.14

Variant	self-cleavage
G2A A11C A16G G30C	0.02
G2A C23A A24G A26U	0.29
G2A C15U A24C	0.54
G2A C3U U9A C18U U28C U32A G40A	0.06
G2A A4U G7C G19A A26G C46U	0.49
G2A C3A G5A C10G A12C C31A A41G	0.03
G2A A4U U32C	0.12
G2A C8U C13G	0.98
G2A C8G G17A U32C A41U	0.1
G2A C18G G33U	0.07
G2A C42G C46A	0.06
G2A A11C C13G U34G C46A	0.02
G2A C3A A12G G22A U34G A39C C46A	0.02
G2A A16C G33U	0.04
G2A C23A G44U	1.54
G2A C3A G19U U43A	0.67
G2A A14C U20C G27C G36A	0.26
G2A C13A U28G C31A C42A	0.08
G2A A24G C37A	0.74
G2A C37A C46A	0.48
G2A G5A C10A G29U C42U	0.05
G2A A6C A26C U32C A39G C42G G44A	0.22
G2A C8A G19C U20A C37A	0.04
G2A C15U C23U G33U C37A U38A	0.2

Variant	self-cleavage
G2A A12U C42A	0.32
G2A C10G C18U G21C U32C C37A G40C G44U	0
G2A A11G A14U C46G	0.08
G2A A14U A16G G17U C23A G27A G36A	0.16
G2A A25G G30U U32A	0.13
G2A C13G G21A G29U	0.44
G2A C23A U34C G35C	0.27
G2A C10G C13U C37A C42A	0.02
G2A C10A A25U A26G G40A	0.01
G2A A11C G29A G30C G36C A41C G44U C45A C46U	0.01
G2A C8G A12U C23U C31U G33U	0.03
G2A A6G C8G U9G G29U G30C C37U U38C	0.01
G2A A6G A11G C18G U28A U32A G35A C46U	0
G2A C18A C31U G36C U38C A41C	0.02
G2A C3G A24G A25C G30C A41G	1.29
G2A A24U G29C C42U	0.55
G2A A11G G19A	0.08
G2A C13G G17A C31U U43A	0.04
G2A A4U G19A G30U	1.36
G2A A6G A24U G35U	0.6
G2A C3U C42A	0.15
G2A A12G G19U G44U	0.02
G2A C3U A11U	0.08
G2A A12G A16U C45U	0

Variant	self-cleavage
G2A A6C C31A	0.11
G2A A16C G21A A24G	0.06
G2A C3A C10G C15G G19A G33C A39U	0.06
G2A A14C G33U C46A	0.04
G2A A12U C18A U28G C37A	0.1
G2A C8G U34C	0.06
G2A A11C U43A	0.03
G2A G5A G21U A41U	0.2
G2A A6U A39U	0.33
G2A A4U U34C C42U	0.32
G2A C13U G21A A25U	0.38
G2A C15A G29A	0.37
G2A C18A G22A G35U U43G C46U	0.09
G2A C10G G27C C42G G44C	0.01
G2A A11G A12U A24C G35A G40U C45G	0
G2A A6C U38C	0.37
G2A C13A C31G G35C U38A A39G	0.08
G2A A14U C18G C37G A39G	0.47
G2A C37A U43G	0.16
G2A A6G C10A C37A	0.01
G2A C3G G22U A25G C31U	0.11
G2A C18G G35C A39U C46A	0.05
G2A C10A A16C C23U	0.08
G2A C10U U20C U28C C37G	0.01

Variant	self-cleavage
G2A A14U G30A	0.04
G2A A6U C8A A12G G35A C45G	0.14
G2A C8A U9A A12U U32G	0.04
G2A C23A C31A	0.06
G2A A24C G29A G44A	1.22
G2A C10A C13A A14C G30C C46A	0.07
G2A C8G G30A	0.07
G2A G5A C15A C46A	0.84
G2A C18A C42A	0.04
G2A A12C G22U G33C A41C C46U	0.01
G2A C3A A16C	0.83
G2A A6U C10U C13U A24C	0.05
G2A C10U C23A U43A	0.08
G2A A11U A14U	0.04
G2A A24U A41U	2.01
G2A C10G C13G A41U	0.02
G2A C13G G17U C23U C42A C45A	0.02
G2A C3U C8A A12G	0.21
G2A C15U G44U	0.72
G2A A14G U38A	0.35
G2A A6C A12G A26U G30C U38G U43G	0
G2A A14G G22A G27C C31G C37G G40C	0.03
G2A C3G U9C G17U U20G G27U	0.05
G2A C3G G36C G40A	0.19

Variant	self-cleavage
G2A G5A A14G A24U G35U	2.35
G2A A6U G27A G35A	0.06
G2A C15A U32A	0.18
G2A A16C G22A C46A	0.42
G2A A26C U34C C46U	0.33
G2A C31U G40U	0.03
G2A A26U G27U	0.34
G2A G5C A6C A16G C23G	0.66
G2A A12G A25G C46G	0.01
G2A A25C U34A	0.51
G2A A6C G19C A41U G44A	0.02
G2A A6C C13G A39G G44U	0.05
G2A C13U A14U G29C	0.32
G2A C3U A6C A11U U20G G29A U43C C46A	0.01
G2A C3A A39C	1.06
G2A A14C G19C G29C C31G	0.09
G2A C8U A26U	0.82
G2A A14C G21U C42U	0.1
G2A A4U A24U G44U	0.18
G2A C13G C45G	0.06
G2A C18G G21U	0.23
G2A A4U A6G G22U C23G C42U G44U	0.03
G2A C13U G40U C46G	0.35
